# Results reported in PubChem BioAssay (NCATS).
# Inconclusive results, whose numbers are uncertain, are shown with a selection of clear calls. Entries that show only a call come without a potency. For part of these data: A potency beside an inconclusive call is a rough fit, not a confirmed value. Calls of active or inactive are those of the source. Unless noted, the call rests on the fitted dose curve; in most records, active means well fitted curve in the direction sought with a large enough effect; inconclusive means small, poorly fitted or top-dose-only effect, or another doubt; inactive means no such curve, though single readings can be large; an effect the other way counts as inactive or inconclusive.
# Columns and labels:
# [1] = P-glycoprotein substrates identified in KB-8-5-11 adenocarcinoma cell line, qHTS therapeutic library screen (AID 1346987); further: nearly all actives have a fitted effect of over 65% in size; further: potency means the concentration at half of the fitted maximal effect
# In short: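 KB-8-5-11, a colchicine-selected P-gp-overexpressing KB-3-1 subline, was grown without colchicine for the assay. Cells were seeded at 500 cells/well, dosed in concentration-response and incubated 72 h at 37 degree C, 5% CO2. Viability was read by CellTiter-Glo luminescence.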
# [2] = system: Zika virus NS2B-NS3 protease (unlinked complex); assay: Primary screen GU Rhodamine qHTS for Zika virus inhibitors: Unlinked NS2B-NS3 protease assay (AID 1347159); further: nearly all actives have a fitted effect of over 60% in size
# In short: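 A qHTS format was used, with compound concentrations ranging up to 114 microM. Each compound was preincubated with 25 nM NS2B-NS3 protease, and the substrate was then added at 1.5 microM. Curves were fitted with a 4-parameter Hill model.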
# [3] = system: Zika virus NS2B-NS3 protease (linked construct); assay: Primary screen NINDS Rhodamine qHTS for Zika virus inhibitors (AID 1347160); details: activity change, negative = inhibition: at 57.1 µM (top of the series) unless noted; further: nearly all actives have a fitted effect of over 55% in size
# In short: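 Kinetic fluorescence (Ex 480 nm, Em 540 nm) over 15 min with 1.5 microM Rhodamine110 peptide and 25 nM linked protease.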
# [4] = Primary qHTS for inhibitors of nuclear receptor binding SET domain protein 2 (NSD2) in an isogenic RCH-ACV NSD2 p.E1099K mutant (9B) (AID 1645876); further: potency means the concentration at half of the fitted maximal effect; nearly all actives have a fitted effect of over 70% in size
# CRL-7250 = normal cell line; assay: Cytotoxic Profiling of Annotated Libraries Using Quantitative High-Throughput Screening (AID 1296008); details: Five cell lines viability, CellTiter-Glo ATP luminescence, 48-72 h; max response: active compounds read low; further: nearly all actives have a fitted effect of over 60% in size; further: potency means the concentration at half of the fitted maximal effect
# In short: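 Compounds were pin-transferred onto cells and incubated 48 or 72 hr at 37 degree Celsius, 95% humidity. CellTiter-Glo was added, plates sat 10 min at room temperature, then ATP-coupled luminescence was imaged as the viability read-out.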
# Hek293T = assay: Primary qHTS to identify gynecologic anti-cancer compounds using libraries of approved drugs and bioactive compounds (AID 1345084); details: Gynecologic cancer cell panel viability, ATPlite luminescence, 48 h, control line for the selectivity index; activity change, negative = cytotoxicity: at 57.5 µM (top of the series) unless noted; further: nearly all actives have a fitted effect of over 55% in size; further: potency means the concentration at half of the fitted maximal effect
# In short: (§1)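 Luminescence from the ATPlite ATP-monitoring reagent indicates viable cell number; lower signal means cytotoxicity. Cells received compound 16 h after seeding and were exposed for 48 h across five concentrations.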
# OV90 = assay: as above; details: Gynecologic cancer cell panel viability, ATPlite luminescence, 48 h; series mostly up to 57.5 µM
# In short: as §1
# PA-1 = assay: as above; details: Gynecologic cancer cell panel viability, ATPlite luminescence, 48 h; series mostly up to 57.5 µM
# In short: as §1
# [5] = qHTS of pediatric cancer cell lines to identify multiple opportunities for drug repurposing: Primary screen for DAOY cells (AID 1347090); details: DAOY medulloblastoma viability, CellTiter-Glo luminescence, 48 h; activity change, negative = cytotoxic: at 46 µM (top of the series); further: nearly all actives have a fitted effect of over 55% in size
# In short: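 Eight- or eleven-point concentration series, 48 h treatment at 37 degrees C in growth media; readout CellTiter-Glo luminescence. Potency and efficacy were taken from the concentration-response curves.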
# [6] = qHTS of pediatric cancer cell lines to identify multiple opportunities for drug repurposing: Primary screen for A673 cells (AID 1347092); details: A673 Ewing sarcoma viability, CellTiter-Glo ATP luminescence, 48 h; activity change, negative = cytotoxic: at 46 µM (top of the series); further: nearly all actives have a fitted effect of over 45% in size
# In short: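 Cells are plated, rested 5 h, dosed by pintool, incubated 48 h, then lysed with CellTiter-Glo and read by luminescence. DMSO is the neutral control; bortezomib at 2.3 uM final is the positive control.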
# [7] = qHTS to identify inhibitors of the type 1 interferon - major histocompatibility complex class I in skeletal muscle: primary screen against the NCATS Mechanism Interrogation Plate v5.0 (MIPE) Libary (AID 1347411); details: iHSKM cells + IFN-b, HiBiT-tagged MHC-I luminescence, 24 h; activity change, negative = inhibition: at 45.8 µM (top of the series); further: nearly all actives have a fitted effect of over 65% in size
# In short: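 Immortalized human myoblasts (C25cl48) with HiBit knocked into endogenous HLA-B*08:01 were stimulated with 4 ng/ml IFN-beta and given compounds in 11-point 1:3 titration from 46 uM. After 24 h at 37 C, lytic HiBiT luminescence was read.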
# [8] = biological target: Cytochrome P450 3A4 (Homo sapiens) (UniProt P08684); assay: Cytochrome P450 family 3 subfamily A member 4 (CYP3A4) small molecule antagonists: luciferase qHTS assay (AID 1645841; active means well fitted curve in the direction sought with a large enough effect in the repeat runs; inconclusive means weak or mixed curves; inactive means no such curve, though single readings can be large; an effect the other way counts as inactive or inconclusive; further: nearly all actives have a fitted effect of over 45% in size)
# Chain of UniProt P08684 (P08684 whole entry, looked up): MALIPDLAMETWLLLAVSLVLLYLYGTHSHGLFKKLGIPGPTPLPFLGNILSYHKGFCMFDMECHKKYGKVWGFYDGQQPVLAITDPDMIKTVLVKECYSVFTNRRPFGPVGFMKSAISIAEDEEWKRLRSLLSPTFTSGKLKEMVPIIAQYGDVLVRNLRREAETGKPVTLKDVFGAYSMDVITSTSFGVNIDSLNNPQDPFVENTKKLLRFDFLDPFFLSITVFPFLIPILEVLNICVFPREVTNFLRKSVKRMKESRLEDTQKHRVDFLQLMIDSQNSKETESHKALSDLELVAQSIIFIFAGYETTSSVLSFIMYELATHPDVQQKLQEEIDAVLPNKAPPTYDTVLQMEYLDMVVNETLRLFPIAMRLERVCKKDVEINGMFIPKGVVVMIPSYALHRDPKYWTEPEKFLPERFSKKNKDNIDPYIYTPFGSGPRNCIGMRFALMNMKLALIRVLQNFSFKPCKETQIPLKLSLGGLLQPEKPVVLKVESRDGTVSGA
# In short: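 P450-Glo CYP3A4 enzyme with proluciferin substrate was preincubated with DMSO-dissolved compounds for 10 min at room temperature. NADPH regeneration solution started a 1 h reaction. Detection reagent stopped it, and luminescence was read after 20 min.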
# [9] = Primary qHTS for inhibitors of nuclear receptor binding SET domain protein 2 (NSD2) in an RCH-ACV wild type WT cells (2C) (AID 1645877); details: activity change, negative = cell killing: at 44.9 µM (top of the series) unless noted; further: nearly all actives have a fitted effect of over 70% in size
# HeLa = assay: Primary qHTS to identify gynecologic anti-cancer compounds using libraries of approved drugs and bioactive compounds (AID 1345084); details: Gynecologic cancer cell panel viability, ATPlite luminescence, 48 h; activity change, negative = cytotoxicity: at 57.5 µM (top of the series); further: nearly all actives have a fitted effect of over 55% in size; further: potency means the concentration at half of the fitted maximal effect
# In short: as §1
# SKOV3 = assay: as above; details: Gynecologic cancer cell panel viability, ATPlite luminescence, 48 h; series mostly up to 57.5 µM
# In short: as §1
# [10] = Drug repurposing screens with cells derived from glioblastoma tumor samples (AID 1345199); details: GBM patient neurospheres viability, ATP luminescence, 48 h; Potency: tumour line A unless noted; activity, negative = cell killing: at 46 µM (top of the series), tumour line A unless noted; further: nearly all actives have a fitted effect of over 40% in size
# In short: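 Four patient lines of CD133+ GBM neurospheres were screened at several concentrations; hits were retested in those lines plus three slower-growing GBM lines, using 48-hour treatment and ATP-based viability.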
# [11] = biological target: Cytochrome P450 2D6 (Homo sapiens) (UniProt P10635); assay: Cytochrome P450 family 2 subfamily D member 6 (CYP2D6) small molecule antagonists: luciferase biochemical (cell-free) qHTS assay (AID 1645840; active means well fitted curve in the direction sought with a large enough effect in the repeat runs; inconclusive means weak or mixed curves; inactive means no such curve, though single readings can be large; an effect the other way counts as inactive or inconclusive; further: nearly all actives have a fitted effect of over 55% in size)
# Chain of UniProt P10635 (P10635 whole entry, looked up): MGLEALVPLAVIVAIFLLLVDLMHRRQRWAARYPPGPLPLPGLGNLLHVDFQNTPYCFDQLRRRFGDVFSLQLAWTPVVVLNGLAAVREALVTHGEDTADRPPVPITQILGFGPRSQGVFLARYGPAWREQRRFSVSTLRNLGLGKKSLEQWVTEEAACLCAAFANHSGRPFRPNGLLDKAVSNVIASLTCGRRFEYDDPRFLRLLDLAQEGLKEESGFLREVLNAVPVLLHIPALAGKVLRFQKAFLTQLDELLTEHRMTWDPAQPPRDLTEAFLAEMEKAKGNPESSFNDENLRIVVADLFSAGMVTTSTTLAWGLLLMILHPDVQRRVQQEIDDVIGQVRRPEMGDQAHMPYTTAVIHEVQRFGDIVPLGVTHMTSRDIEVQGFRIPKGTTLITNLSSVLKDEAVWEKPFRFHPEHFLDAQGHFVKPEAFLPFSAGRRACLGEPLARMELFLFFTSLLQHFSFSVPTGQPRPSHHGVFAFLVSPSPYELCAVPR
# In short: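 P450-Glo luminescent screen: recombinant CYP2D6 enzyme–proluciferin substrate mix preincubated with compound 10 min at room temperature, then NADPH regeneration added for 1 h at room temperature. Detection reagent added for 20 min; luciferin light read as relative luminescence units.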
# [12] = Primary fluorescence-based thiol-reactive (MSTI) qHTS assay for identification of artifact compounds. (AID 1845221);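 further: potency means the concentration at half of the fitted maximal effect; thiol-reactive compounds lower the probe fluorescence signal; nearly all actives have a fitted effect of over 65% in size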
# In short: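 Compounds were incubated 1 h at room temperature in the dark with the MSTI probe (4 uM) in PBS pH 7.4, 2% DMSO. Signals were normalized between Acetyl-MSTI and MSTI.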
# [13] = biological target: Cytochrome P450 3A4 (Homo sapiens) (UniProt P08684); assay: qHTS Assay for Inhibitors and Substrates of Cytochrome P450 3A4 (AID 884); further: nearly all actives have a fitted effect of over 50% in size
# In short: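 20 nM human CYP3A4 with 25 uM Luciferin-PPXE (at KM) in 200 mM KPO4, preincubated 10 min with compound; NADPH regeneration started a 60 min RT reaction. Luciferin detected by luminescence, normalized to 57 uM ketoconazole as full inhibition.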
# [14] = qHTS of pediatric cancer cell lines to identify multiple opportunities for drug repurposing: Primary screen for BT-37 cells (AID 1347094)
# In short: (§2)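 Following a 5-hour attachment period, cells at 500-1,000/well received compounds and were cultured for 48 hours. CellTiter-Glo was added and luminescence read to estimate viable, metabolically active cells.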
# [15] = qHTS of pediatric cancer cell lines to identify multiple opportunities for drug repurposing: Primary screen for LAN-5 cells (AID 1347100)
# In short: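 Cells (500-1,000/well) in growth media were settled 5 h at 37 degrees C, then given compounds for 48 h. Viability was read as CellTiter-Glo luminescence. Primary runs used MIPE at 11 points (0.78 nM-46 µM) and NPC at 8 points (0.59 nM-46 µM); follow-ups used 11 points.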
# [16] = qHTS of pediatric cancer cell lines to identify multiple opportunities for drug repurposing: Primary screen for MG 63 (6-TG R) cells (AID 1347105); details: MG 63 (6-TG R) viability, CellTiter-Glo, 48 h; activity change, negative = cytotoxic: at 46 µM (top of the series); further: nearly all actives have a fitted effect of over 50% in size
# In short: as §2
# [17] = qHTS of pediatric cancer cell lines to identify multiple opportunities for drug repurposing: Primary screen for Rh41 cells (AID 1347108);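 further: luminescence drop marks cytotoxic hits; nearly all actives have a fitted effect of over 70% in size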
# In short: as §2
# [18] = Primary qHTS for small molecule stabilizers of the endoplasmic reticulum resident proteome: Secreted ER Calcium Modulated Protein (SERCaMP) assay (AID 1508630); details: SH-SY5Y GLuc-SERCaMP (Gaussia luciferase released on ER calcium loss) secretion, thapsigargin, luminescence; activity change, negative = inhibition: at 38.4 µM (top of the series) unless noted; further: potency means the concentration at half of the fitted maximal effect
# In short: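 GLuc-SERCaMP-expressing SH-SY5Y cells, pretreated 16 h with compound, are challenged with thapsigargin to empty ER calcium stores; after 4 h, coelenterazine is added directly to the medium and luminescence is imaged.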
# [19] = A High-Content qHTS Against Drug Library for the Identification of Small Molecules that Inhibit DYT1 Early Onset Primary Dystonia-Associated Cell Pathology (AID 1645839; calls by dose curve; further: potency means the concentration at half of the fitted maximal effect)
# In short: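 Readout: %pathology, the punctate EGFP-TorsinA distribution from imaging, as the primary channel and cell count as the toxicity counterscreen. HEK293 Flp-In cells expressing delE TorsinA were induced with tetracycline and treated with compound for 48 h.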
# CP315 = assay: qHTS profiling for inhibitors of Plasmodium falciparum proliferation (AID 504749); further: nearly all actives have a fitted effect of over 60% in size; details: P. falciparum in erythrocytes, SYBR Green DNA, 72 h; series mostly up to 28.7 µM
# In short: (§3)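 Parasite proliferation within erythrocytes, 72 h exposure. Endpoint: SYBR Green I fluorescence after overnight lysis at room temperature. Controls: 0.29 uM artemisinin, DMSO.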
# P93_24 = assay: as above; details: P. falciparum in erythrocytes, SYBR Green DNA, 72 h; series mostly up to 28.7 µM
# In short: as §3
# PC15 = assay: as above; details: P. falciparum in erythrocytes, SYBR Green DNA, 72 h; series mostly up to 28.7 µM
# In short: as §3
# TAB109 = assay: as above; details: P. falciparum in erythrocytes, SYBR Green DNA, 72 h; series mostly up to 28.7 µM
# In short: as §3
# CASKI = assay: Primary qHTS to identify gynecologic anti-cancer compounds using libraries of approved drugs and bioactive compounds (AID 1345084); details: Gynecologic cancer cell panel viability, ATPlite luminescence, 48 h; series mostly up to 57.5 µM; further: nearly all actives have a fitted effect of over 55% in size; further: potency means the concentration at half of the fitted maximal effect
# In short: as §1
# Tags describe the fitted curve by direction and shape.
structure (smiles),measurement,setting,value
C[C@@H]1CCCN1CCc1cc2cc(-c3ccc(C#N)cc3)ccc2o1,Potency,[1],"inconclusive: 29.1 µM [inhibitor, single point]"
same,Potency,[2],inactive
same,Potency,[3],inactive
same,Potency,[4],"inconclusive: 23 µM [inhibitor, single point]"
same,Potency,CRL-7250,"inconclusive: 29.1 µM [inhibitor, single point]"
same,Potency,Hek293T,"inconclusive: 25.1 µM [cytotoxic, partial curve, poor fit]"
same,Potency,OV90,"inconclusive: 10 µM [cytotoxic, partial curve]"
same,Potency,PA-1,"inconclusive: 14.1 µM [cytotoxic, partial curve, poor fit]"
CN(N=O)C(=O)N[C@@H]1[C@@H](O)[C@H](O)[C@@H](CO)O[C@@H]1O,Potency,[5],inactive
same,Potency,[6],inactive
same,Potency,[7],inactive
same,Potency,[8],inactive
same,Potency,[9],inactive
same,outcome,CRL-7250,inactive
same,Potency,HeLa,inactive
same,Potency,PA-1,inactive
same,Potency,SKOV3,"inconclusive: 8.91 µM [rising, partial curve]"
same,Potency,[10],inactive
CN(C)c1ccc(C2O[C@@H](c3ccccc3)C[C@H](c3ccccc3)O2)cc1 (some centres not stated),Potency,[1],inactive
same,Potency,[2],inactive
same,Potency,[11],inactive
same,Potency,[9],inactive
same,Potency,[12],"inconclusive: 9.47 µM [inhibitor, partial curve]"
same,outcome,CRL-7250,inactive
same,Potency,HeLa,inactive
same,Potency,PA-1,inactive
same,Potency,SKOV3,inactive
CC(N)CCCC(C)(C)O (configuration not stated),Potency,[13],inactive
same,Potency,[14],inactive
same,Potency,[15],inactive
same,Potency,[16],inactive
same,Potency,[17],inactive
same,Potency,[18],"inconclusive: 31.6 µM [inhibitor, partial curve, poor fit]"
same,Potency,[19],"inconclusive: 17.8 µM [inhibitor, single point]"
same,Potency,[11],inactive
same,Potency,[9],inactive
same,Potency,CP315,inactive
same,Potency,P93_24,inactive
same,Potency,PC15,inactive
same,Potency,TAB109,inactive
same,max response,CRL-7250,inactive: -9.12%
same,Potency,CASKI,inactive
